# Measured values reported in publication PMC4336329 (PLoS ONE, 2015).
# Hit rate of the full screen: of about 310,000 compounds, about 2,200 (0.71%) showed an effect of 50% or more. Effects have a minus sign here. This is one part of the list.
# Target: human ether-à-go-go-related gene (hERG) potassium channel (human, UniProt Q12809)
# Assay: primary screen, population patch clamp on CHO cells stably expressing hERG
# Sequence of human ether-à-go-go-related gene (hERG) potassium channel (Q12809 whole entry, looked up): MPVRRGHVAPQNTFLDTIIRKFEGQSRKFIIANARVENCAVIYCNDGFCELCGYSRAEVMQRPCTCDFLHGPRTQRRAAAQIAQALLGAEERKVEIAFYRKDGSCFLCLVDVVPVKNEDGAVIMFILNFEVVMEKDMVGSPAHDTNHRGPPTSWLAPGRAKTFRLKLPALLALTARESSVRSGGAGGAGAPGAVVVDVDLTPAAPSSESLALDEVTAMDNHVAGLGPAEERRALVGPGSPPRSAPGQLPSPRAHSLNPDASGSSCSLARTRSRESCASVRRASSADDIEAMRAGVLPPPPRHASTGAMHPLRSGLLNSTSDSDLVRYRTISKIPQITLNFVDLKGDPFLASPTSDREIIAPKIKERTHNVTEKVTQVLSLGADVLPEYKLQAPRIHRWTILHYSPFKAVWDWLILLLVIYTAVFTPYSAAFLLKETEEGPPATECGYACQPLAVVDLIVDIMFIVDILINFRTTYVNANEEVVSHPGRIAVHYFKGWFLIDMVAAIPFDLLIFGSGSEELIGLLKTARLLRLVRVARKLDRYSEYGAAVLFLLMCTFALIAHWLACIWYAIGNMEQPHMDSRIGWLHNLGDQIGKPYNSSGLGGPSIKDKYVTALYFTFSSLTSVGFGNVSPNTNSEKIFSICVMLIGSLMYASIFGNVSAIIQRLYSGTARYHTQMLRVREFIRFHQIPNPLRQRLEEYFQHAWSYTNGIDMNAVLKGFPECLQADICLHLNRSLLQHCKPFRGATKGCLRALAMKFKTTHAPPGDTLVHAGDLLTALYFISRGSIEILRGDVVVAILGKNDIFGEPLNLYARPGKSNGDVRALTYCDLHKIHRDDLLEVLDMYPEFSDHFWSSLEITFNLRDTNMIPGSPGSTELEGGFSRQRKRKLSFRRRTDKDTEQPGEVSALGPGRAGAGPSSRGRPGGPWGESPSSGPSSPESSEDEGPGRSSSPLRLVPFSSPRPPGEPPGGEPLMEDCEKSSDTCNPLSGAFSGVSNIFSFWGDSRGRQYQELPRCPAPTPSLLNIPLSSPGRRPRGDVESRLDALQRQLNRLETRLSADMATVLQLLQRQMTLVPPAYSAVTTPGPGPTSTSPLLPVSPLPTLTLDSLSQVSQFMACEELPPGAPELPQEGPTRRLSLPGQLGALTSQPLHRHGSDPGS
row,Structure (SMILES),"hERG current change (%, negative = inhibition) at 1uM"
1,CCOC(=O)Cc1csc(N/C(=N/S(=O)(=O)c2ccc(Cl)cc2)c2ccccc2)n1,15%
2,COc1ccccc1N1CCN(C(=O)c2ccc3c(c2)CCN3S(=O)(=O)c2ccccc2)CC1,14.5%
3,CCOc1ccc(CN2CCN(CCCc3ccccc3)CC2CCO)cc1 (stereo not drawn),-80.9%
4,CC1(C)C=Cc2cc3ccc(=O)oc3cc2O1,6.91%
5,O=C(OCc1cc(=O)n2ccsc2n1)c1ccc(O)cc1O,-5.95%
6,COc1cccc(-c2nc(N3CCCCC3)c3ccccc3n2)c1O,11.3%
7,COc1ccc(NC(=O)CC2C(=O)N(C)C(=S)N2CCc2ccccc2F)cc1 (stereo not drawn),8.21%
8,COc1ccc(-c2cc(C(F)(F)F)nc(-n3ccnc3)n2)cc1,11.5%
9,O=C(COc1cccnc1[N+](=O)[O-])NCc1ccco1,2.02%
10,COc1cc2c(cc1OC)CN(C(=O)CN1C(=O)c3ccc([N+](=O)[O-])cc3C1=O)CC2,10.3%
11,CSc1nc(NNC=O)cc(Oc2ccc(NC(C)=O)cc2)n1,17.3%
12,CCO[C@@H]1OC(C(=O)N2CCOCC2)=C[C@H](c2cn(C(C)=O)c3ccccc23)[C@H]1CCCO,4.34%
13,O=[N+]([O-])c1cccnc1SCc1c(F)cccc1Cl,16.4%
14,CC1CCCC(C)N1C(=O)COc1ccccc1F (stereo not drawn),14.2%
15,CS(=O)(=O)c1nc(-c2ccco2)cc(C(F)(F)F)n1,14.4%
16,Cc1ccc(S(=O)(=O)N2CCC(C(=O)OC(C)C(=O)NCc3ccc4c(c3)OCO4)CC2)cc1 (stereo not drawn),8.22%
17,Cn1nccc1C(=O)N1CCCC(C(=O)c2ccc(C(F)(F)F)cc2)C1 (stereo not drawn),13.1%
18,O=C(O)C1C2CC2CN1C(=O)c1ccc(Cl)cc1Cl (stereo not drawn),11.1%
19,O=C(CN1C(=O)NC(c2ccccc2)(c2ccccc2)C1=O)N1CCN(c2ccc(F)cc2)CC1,-2.31%
20,COc1ccc(-n2c(C)cc(C(=O)CSc3nnc(-c4cccs4)o3)c2C)cc1,-11.5%
21,Clc1ccc(-c2cn3c(n2)SCC3)cc1,12.4%
22,O=C(Cc1ccccc1)N/N=C/c1ccc(-c2ccc([N+](=O)[O-])cc2)o1,4.87%

row,Structure (SMILES),"hERG current change (%, negative = inhibition) at 1uM"
1,Cc1ccc(C(OC(=O)c2ccco2)C(=O)NC2CCCC2)cc1 (stereo not drawn),11.3%
2,COc1ccc(CCNC(=O)CC2C(=O)NCCN2CC(C)(C)C)cc1 (stereo not drawn),8.21%
3,COc1ccc(NC(=O)Cn2nnc(C(=O)NCc3ccco3)c2N)c(OC)c1,22.8%
4,O=C(CN(C(=O)C1COc2ccccc2O1)c1ccccc1)NCC1CCCO1 (stereo not drawn),-9.34%
5,Cc1cccc(NC(=O)Cn2c(O)c(N=NC(=O)c3ccncc3)c3ccccc32)c1,6.45%
6,COc1ccc(Nc2nc(-c3cccs3)nc3ccccc23)cc1S(=O)(=O)N1CCOCC1,1.78%
7,COC(=O)c1ccc(C23CC4(C2)[C@H](CN(Cc2ccc(C(F)(F)F)cc2)[C@@H]4c2ccccc2)C3c2ccccc2)cc1 (stereo partly drawn),12.7%
8,Cc1ccccc1CN(C)CC(=O)Nc1ccccc1Oc1ccccc1,14%
9,COc1c2c(nc3ccccc13)OC(C(C)(O)CO)C2 (stereo not drawn),16.2%
10,Cc1ccc2[nH]cc(C(=O)CN3CCOCC3)c2c1,24.4%
11,O=C(N/N=C/c1ccc(Cl)cc1Cl)c1ccc2nc[nH]c2c1,20.1%
12,CCOc1ccc(NC(=O)CSc2n[nH]c(N)n2)c([N+](=O)[O-])c1,7.15%
13,c1ccc(-n2nnnc2Oc2ccc(-n3ccnc3)cc2)cc1,-36.9%
14,COc1ccc(N(CC(=O)NCCSc2ccccn2)S(=O)(=O)c2ccc(C)cc2)cc1OC,-2.25%
15,N#Cc1cc2ccccc2nc1SCC(=O)NC1CC1,10.7%
16,Cc1nc(SCC2(C)CC2(Cl)Cl)n[nH]1 (stereo not drawn),17.9%
17,COc1cc(CN2CCNC(=O)C2CC(=O)NCCCC2CCCC2)cc(OC)c1 (stereo not drawn),10%
18,CSC1=N/C(=C\c2ccccc2C)C(=O)S1,13.9%
19,CCN1C(=O)CSC1=Nc1ccccc1Cl,12.1%
20,O=C(Cc1ccc([N+](=O)[O-])cc1)NCc1cccnc1,13.1%
21,Cc1ccsc1C(=O)N1CCCC(CO)(Cc2ccccc2F)C1 (stereo not drawn),13.9%
22,COc1ccc(S(=O)(=O)N2CCN(C(=O)c3cc(-c4ccc(C)cc4)n[nH]3)CC2)cc1,1.74%

row,Structure (SMILES),"hERG current change (%, negative = inhibition) at 1uM"
1,COc1ccc(CC(=O)NNc2ncnc3c2cnn3Cc2ccccc2)cc1OC,15.3%
2,COc1ccc(C(=O)N/C(=C\c2ccccc2)C(=O)Nc2cccc(C(=O)O)c2)cc1,17.9%
3,COc1cccc(N/C(N)=N/c2nc(C)cc(=O)[nH]2)c1,10.9%
4,c1cc(-c2cccs2)nc(-c2cccs2)c1,2.2%
5,Cc1nc(-c2ccccc2)sc1-c1nnc(C2CC2)o1,-0.729%
6,CC1CN(C(=O)Cn2cc(S(=O)(=O)CC(=O)N(C)c3ccccc3)c3ccccc32)CC(C)O1 (stereo not drawn),10.7%
7,Cc1cccc(OCC(=O)NCc2ccccc2)c1,14.3%
8,COC(=O)CN1C(=O)C2(OCCCO2)c2ccccc21,5.51%
9,CC(C)c1ccc(N2C(=O)NC(=O)/C(=C\C=C\c3ccco3)C2=O)cc1,12.8%
10,Cc1ccc(OC(C)C(=O)N2CCCc3ccccc32)cc1 (stereo not drawn),-7.48%
11,CCCn1c2ccccc2c2nnc(SCC(=O)Nc3nnc(CC(=O)OCC)s3)nc21,12.3%
12,CN1CCCN(c2ncnc3scc(-c4ccc(F)cc4)c23)CC1,2.69%
13,COCCN(C(=O)COC(=O)CCn1c(C)csc1=O)c1c(N)n(Cc2ccccc2)c(=O)[nH]c1=O,13.6%
14,CCOC(=O)C(=CNNc1c(C)csc1C(=O)OC)C(=O)OCC,16.7%
15,N#Cc1c2n(c3c(=O)n(Cc4ccccc4Cl)cnc13)CCCCC2,-10.1%
16,CCSc1nc2sc3c(c2c(=O)[nH]1)CCc1ccccc1-3,-1.6%
17,CN(C)S(=O)(=O)c1cccc(NC(=O)COC(=O)/C=C/c2ccc([N+](=O)[O-])cc2)c1,-3.19%
18,C=C(C)Cn1c(CCNC(=O)CC)nc2ccccc21,0.764%
19,CCN(c1ccccc1)S(=O)(=O)c1ccc(C(=O)N(CCCN(C)C)c2nc3c(C)cccc3s2)cc1.Cl,3.32%
20,Cc1ccc(C(=O)N2CCN(c3ccc(C(F)(F)F)cn3)CC2)cc1,-2.79%
21,CCOC(=O)C1CCN(C(=O)C(C)Oc2ccc(Br)cc2)CC1 (stereo not drawn),4.97%
22,C=CCNCC(=O)NN=C(c1ccccc1)c1ccccc1,-40.8%

row,Structure (SMILES),"hERG current change (%, negative = inhibition) at 1uM"
1,O=C(Oc1cccc(-n2cnnn2)c1)C1CCCCC1,-7.64%
2,Cc1cccc(C(=O)OCc2cc(=O)oc3c(C)c(C)ccc23)c1O,-3.57%
3,Cc1c(Cl)ccc2c(C(N)=O)cc(-c3ccccn3)nc12,9.04%
4,Cc1cc(Br)ccc1OCCNCc1ccccc1.O=C(O)C(=O)O,11.6%
5,COc1cc(NC(=O)c2ccc3c(=O)n(Cc4ccco4)c(=S)[nH]c3c2)cc(OC)c1OC,10.3%
6,CN(C1CCCCC1)S(=O)(=O)CCNC(=O)c1ccccc1,5.09%
7,CC(=O)Nc1ccc(S(=O)(=O)NC(C)C(=O)NC(C)c2ccccc2)cc1 (stereo not drawn),10.7%
8,O=C(CSc1ccc(-c2ccco2)nn1)Nc1ccc(F)cc1F,-7.44%
9,COC(=O)[C@@]1(Cc2ccc(F)cc2)[C@H]2c3cc(C(=O)N4CCCC4)n(CCO)c3C[C@H]2CN1C(=O)c1ccccc1,2.62%
10,Cc1nc(CS(=O)c2ccccc2)cc(N2CCOCC2)n1 (stereo not drawn),4.14%
11,c1ccc(CCn2nnnc2C(c2cccnc2)N2CCN(c3nc4ccccc4s3)CC2)cc1 (stereo not drawn),-40.4%
12,COc1ccc(NC(=O)Nc2ccccc2C(=O)N2CCCC2)cc1,5.79%
13,C[C@]12CC[C@H](O)CC1=CC[C@@H]1[C@@H]2CC[C@@]2(C)[C@H]1CC[C@]2(C)O,4.93%
14,O=C(NC(=S)NCC1CCCO1)c1ccc([N+](=O)[O-])cc1 (stereo not drawn),10.3%
15,O=S(=O)(Nc1ccc(Br)cn1)c1cccs1,11.3%
16,CC(=O)N1CCN(c2ccc(NCc3cccc4ccccc34)cc2)CC1,4.48%
17,O=c1[nH]c(CSc2ccccn2)nc2c1cnn2-c1ccccc1,5.48%
18,O=C1c2ccsc2SCCN1Cc1cccc(F)c1,5.65%
19,Cc1nc2c(c(C)nn2-c2ccccc2)c(C)c1C,7.99%
20,CC(=O)Nc1cccc(N(C(=O)C2COc3ccccc3O2)C(C(=O)NC2CCCCC2)c2cn(C)nc2C)c1 (stereo not drawn),20.4%
21,CCOC(=O)C(Cc1ccccc1)NC(=O)CCc1c(C)nc2nc(C)nn2c1C (stereo not drawn),10.3%
